The text below walks through data of PMC4336329 (PLoS ONE, 2015).

The campaign covered roughly 310,000 compounds. About 14,000 (4.5%) showed an effect of 50% or more. The effect is printed as a negative number. This is one part of the list.
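Also: peak tail current of the secondary pulse compared with the same well before compound.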

Sequence of human ether-à-go-go-related gene (hERG) potassium channel (Q12809 whole entry, looked up): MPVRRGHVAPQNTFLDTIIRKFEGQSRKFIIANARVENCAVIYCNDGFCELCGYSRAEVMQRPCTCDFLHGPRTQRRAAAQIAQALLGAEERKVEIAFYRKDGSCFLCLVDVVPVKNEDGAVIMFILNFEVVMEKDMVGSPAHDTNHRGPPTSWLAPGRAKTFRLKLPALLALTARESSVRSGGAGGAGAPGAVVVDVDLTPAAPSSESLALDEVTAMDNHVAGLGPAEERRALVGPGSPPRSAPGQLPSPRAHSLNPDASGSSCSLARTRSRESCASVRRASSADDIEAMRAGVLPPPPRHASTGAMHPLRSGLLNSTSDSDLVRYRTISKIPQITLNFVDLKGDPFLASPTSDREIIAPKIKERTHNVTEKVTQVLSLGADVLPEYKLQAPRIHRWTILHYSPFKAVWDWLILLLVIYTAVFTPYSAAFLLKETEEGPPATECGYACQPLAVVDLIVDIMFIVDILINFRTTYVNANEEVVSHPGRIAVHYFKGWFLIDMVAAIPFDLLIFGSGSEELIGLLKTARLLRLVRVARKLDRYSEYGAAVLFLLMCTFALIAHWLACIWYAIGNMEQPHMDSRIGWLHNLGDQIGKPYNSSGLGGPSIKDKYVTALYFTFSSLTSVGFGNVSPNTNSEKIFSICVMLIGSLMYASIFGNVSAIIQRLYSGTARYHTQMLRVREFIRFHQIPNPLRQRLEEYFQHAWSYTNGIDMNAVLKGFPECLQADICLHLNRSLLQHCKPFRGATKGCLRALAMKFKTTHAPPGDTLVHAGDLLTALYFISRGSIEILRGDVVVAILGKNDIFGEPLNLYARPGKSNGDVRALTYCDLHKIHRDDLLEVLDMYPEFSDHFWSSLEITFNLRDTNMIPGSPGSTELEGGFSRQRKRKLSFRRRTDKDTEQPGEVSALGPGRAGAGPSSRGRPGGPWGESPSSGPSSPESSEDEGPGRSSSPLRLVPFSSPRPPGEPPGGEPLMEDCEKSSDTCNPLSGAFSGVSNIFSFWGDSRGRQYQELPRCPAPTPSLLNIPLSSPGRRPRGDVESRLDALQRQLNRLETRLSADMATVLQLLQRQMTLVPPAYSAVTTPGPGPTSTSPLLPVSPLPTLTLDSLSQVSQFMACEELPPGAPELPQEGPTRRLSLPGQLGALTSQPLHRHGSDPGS

This test addresses human ether-à-go-go-related gene (hERG) potassium channel (human, UniProt Q12809). Nature of the test: primary screen, population patch clamp on CHO cells stably expressing hERG.
Take `Clc1ccc(OCC#CCN2CCOCC2)cc1.O=C(O)C(=O)O`: the “hERG current change (%, negative = inhibition) at 10uM” value turned out to be 24.6%. In the case of `Cc1ccc(OS(=O)(=O)c2ccc(N3C(=O)CCC3=O)cc2)cc1` it was 15.7%. As to `COc1ccc(-c2cccc([C@H]3[C@@H]4C=CCC[C@@]4(C)C(=O)N3Cc3ccccc3)c2)cc1`, the “hERG current change (%, negative = inhibition) at 10uM” value was 16.7%. The figure for `O=C(Cn1nc(C(F)(F)F)c2c1CCC2)NCc1ccc(Cl)cc1` is 14.4%.

Consider `CCOC(=O)Cc1csc(NC(=O)c2cccnc2)n1`, for which the “hERG current change (%, negative = inhibition) at 10uM” value was -0.223%. In the case of `N#CC(C(=O)c1ccccc1)=C1SCCS1` it was 9.21%. In the case of `Cl.O=c1[nH]cnc2c1N1CCC2CC1` it was 6.9%.

`O=C(OCC(=O)N1CCCCCC1)c1cccs1`: the “hERG current change (%, negative = inhibition) at 10uM” value worked out at 21.7%. As for `COc1ccccc1C(=O)NCCC(=O)Nc1ncccc1C`, the “hERG current change (%, negative = inhibition) at 10uM” value turned out to be 22.6%. In the case of `CCOC(=O)C(=O)Nc1nc(-c2ccccc2)c(CC)s1` it was -3.71%; in that of `O=C(CSc1nc2ccccc2s1)Nc1ccc(Cl)c(S(=O)(=O)N2CCOCC2)c1`, -23%; in that of `O=C(c1ccc2c(c1)OCCO2)C1CCN(C(=O)Nc2ccccc2F)CC1`, 6.22%. For the compound `Cc1nn(CC(=O)OCC(=O)Nc2ccccc2[N+](=O)[O-])c(C)c1[N+](=O)[O-]`, the “hERG current change (%, negative = inhibition) at 10uM” value is -9.16%. Regarding `O=C1CCc2cc(S(=O)(=O)N3CCN(c4ccccc4F)CC3)ccc2N1`, the “hERG current change (%, negative = inhibition) at 10uM” value was -30.1%. The figure for `Cc1ccc(N(C(=O)c2snc(C(N)=O)c2N)C(C(=O)NC2CCCC2)c2ccc(C)o2)cc1` (stereo not drawn) is -4.62%. Turning to `COc1ccc(OC)c(N(CC(N)=O)S(=O)(=O)c2ccc(OC)c(OC)c2)c1`, the “hERG current change (%, negative = inhibition) at 10uM” value is -0.629%. The figure for `CCCCC(=O)Nc1cccc(-c2cn3ccccc3n2)c1` is -13.6%; for `O=C(NCC1CCCO1)c1ccc(S(=O)(=O)Nc2ccccc2F)cc1` (stereo not drawn) it is 0.767%. For `Cc1cc(O)cc2c1O[C@@](C)(CCC[C@@H](C)CCC[C@@H](C)CCCC(C)C)CC2`, the “hERG current change (%, negative = inhibition) at 10uM” value is on record as -8.93%. The figure for `Cc1cc(C(=O)COC(=O)c2ccc(O)cc2O)c(C)n1-c1ccccc1` is -4.8%; for `CCCCOc1ccc(C2/C(=C(/O)c3ccc4c(c3)CC(C)O4)C(=O)C(=O)N2CCCN2CCOCC2)cc1OC` (stereo not drawn) it is 11.9%; for `Cc1nnc(SCC(=O)N2CCN(S(=O)(=O)c3ccccc3)CC2)n1Cc1ccccc1` it is 5.16%. The figure for `CCOC(=O)N1CCN(C(=O)c2cn(CC)c3ccc(S(=O)(=O)N4CCC(C)CC4)cc3c2=O)CC1` is 4.17%. For `O=S(=O)(Nc1cccc(-n2cnnn2)c1)c1cc(Br)ccc1Br`, the “hERG current change (%, negative = inhibition) at 10uM” value turned out to be 2.53%. The figure for `CC(=O)NCCc1ccc(S(=O)(=O)Nc2ccc(NC(=O)c3ccc(F)cc3)cc2)cc1` is 15.4%. The figure for `CCOC(=O)c1cnc2c(C(=O)OC)cccc2c1NCc1cccnc1` is -70.5%; for `O=C(Nc1ccc(-c2csnn2)cc1)C(Cl)(Cl)Cl` it is 17.5%; for `CC(=O)Nc1ccc(NC(=O)c2sc(-c3ccccc3)nc2C)cc1` it is 10.6%. As for `Cn1c(CN2CCCC2)nc2cc(NS(=O)(=O)c3ccc(Cl)cc3)ccc21`, the “hERG current change (%, negative = inhibition) at 10uM” value is on record as -61.7%. In the case of `COc1ccc(S(=O)(=O)N/N=C\c2ccc(OC)c(COc3ccc(C)cc3[N+](=O)[O-])c2)cc1` it was 6.76%; in that of `Cc1ccc(-c2cc([C@H]3[C@H]4C=CC[C@@H](C)[C@@H]4C(=O)N3Cc3ccccc3)ccc2F)cc1`, 22.4%; in that of `N/C(Cc1ccc(Cl)cc1Cl)=N\OC(=O)c1ccc(Br)o1`, 19%. Regarding `CN1CCN(C(=O)C2=C[C@H](c3ccc4c(c3)OCO4)C[C@H](OCc3ccc(CO)cc3)O2)CC1`, the “hERG current change (%, negative = inhibition) at 10uM” value is on record as -31.1%.

As for `CC(=O)N(C)c1ccc(NC(=O)Nc2ccc(C)c(C)c2)cc1`, the “hERG current change (%, negative = inhibition) at 10uM” value is reported as -0.764%. `COc1cc(C)c(Cl)cc1S(=O)(=O)N1CCSC1`: the “hERG current change (%, negative = inhibition) at 10uM” value is 5.11%. In the case of `Cc1cccc2sc(NC(=O)CN3C(=O)C4CC=CCC4C3=O)nc12` (stereo not drawn) it was -10.7%. In the case of `COc1cccc(-n2c(=O)c3sccc3n(CC(=O)NCC3CCCO3)c2=O)c1` (stereo not drawn) it was 12.8%; in that of `Cc1cc(C)c(CSc2nnnn2-c2ccc(C(=O)O)cc2)c(C)c1`, 7.1%; in that of `C=CCSc1nnc(-c2cc3c(s2)-c2ccccc2CC3)o1`, 10.8%.

Consider `CC(C)(C)NC(=O)NC(=O)COC(=O)c1cccc(OC(F)F)c1`, for which the “hERG current change (%, negative = inhibition) at 10uM” value was -28.4%. Consider `CCOc1ccc(S(=O)(=O)n2cnc(C)c2)cc1`, for which the “hERG current change (%, negative = inhibition) at 10uM” value worked out at 13.1%. In the case of `CC(=O)OCCN(Cc1ccccc1)Cc1ccc2c(c1)OCO2` it was -10.8%; in that of `COc1cc(NC(=O)CN2C3CCC2CC(O)(c2cccnc2)C3)cc(OC)c1` (stereo not drawn), -60.9%. As to `CCOCCCN(C(=O)Cn1nnc(-c2ccc(OC)c(OC)c2)n1)C(CC)C(=O)NC1CCCC1` (stereo not drawn), the “hERG current change (%, negative = inhibition) at 10uM” value is -21%. The figure for `COCCc1nnc(NC(=O)C23CC4CC(CC(C4)C2)C3)s1` is 13.8%. As to `Cc1c(C(=O)NCc2cccnc2)oc2c1C(=O)CC(C)(C)C2`, the “hERG current change (%, negative = inhibition) at 10uM” value is -5.82%. For the compound `COc1ccc(NC(=O)CN(C)S(=O)(=O)c2cccc3nsnc23)cc1`, the “hERG current change (%, negative = inhibition) at 10uM” value was -21.9%. In the case of `COc1ccc(N(CC(=O)Nc2cccc(SC)c2)S(C)(=O)=O)cc1Cl`, the “hERG current change (%, negative = inhibition) at 10uM” value is listed as -19%. The figure for `C/C(Cl)=C/Cn1c(N2CCCC2)nc2c1c(=O)n(C)c(=O)n2C` is -2.69%; for `O=C1NC(=S)N(c2cccc(Cl)c2)C12CCCCC2` it is 13.3%. The figure for `CC(=O)OCC(OC(C)=O)C(OC(C)=O)C(OC(C)=O)C(=O)Nc1ccc(C)cc1C` (stereo not drawn) is -3.68%. In the case of `CCC(C)(C)n1nnnc1C(C(C)C)N1CCSCC1` (stereo not drawn) it was -61.6%; in that of `CSc1ccc(C2C(C#N)=C(N)N(c3ccccc3)C3=C2C(=O)CCC3)cc1` (stereo not drawn), -38.8%. As to `CCc1cccc(NC(=O)CSc2nc3c(c(=O)[nH]2)CCCC3)c1`, the “hERG current change (%, negative = inhibition) at 10uM” value is given as 22.6%.

For the compound `O=C(CSc1nc2ccc(Cl)cc2[nH]1)NCCc1ccccc1`, the “hERG current change (%, negative = inhibition) at 10uM” value is on record as -3.25%. The figure for `CCOc1cc(CNCCO)ccc1OCC(=O)NC(C)(C)C.Cl` is 15.7%. In the case of `Br.O=C(CN(Cc1ccccc1)C1=NCCS1)c1ccc(Cl)cc1` it was -49.8%; in that of `Cc1ccc(S(=O)(=O)N2CCCCC2)cc1NC(=O)COC(=O)c1ccc(O)cc1`, -9.75%. The figure for `CCCOc1cccc(NC(=O)c2c(-c3ccccc3)noc2C)c1` is -8.81%; for `CCc1ccc(-n2c(SCC(=O)Nc3cccc(S(=O)(=O)NC4=NCCCCC4)c3)nc3ccccc3c2=O)cc1` it is 25.8%; for `CC(C)OCCCNC(=O)Cn1ncc2c(=O)oc3ccccc3c21` it is -5.08%. Consider `O=C1CC(c2cc(F)ccc2F)c2cc3c(cc2N1)CCC3` (stereo not drawn), for which the “hERG current change (%, negative = inhibition) at 10uM” value was -2.24%.

With `CCOC(=O)N1CCN(CC(=O)Nc2cc(C)nn2-c2nc3ccccc3s2)CC1`, the “hERG current change (%, negative = inhibition) at 10uM” value is recorded as -23.3%.

Take `Cc1ccc(-c2nnc(N3CCCCC3)c3ccccc23)cc1S(=O)(=O)N(C)C`: the “hERG current change (%, negative = inhibition) at 10uM” value is on record as -27%. As to `Cc1cc(C)c(C)c(S(=O)(=O)N2CCC(C(=O)Nc3ccccc3N3CCOCC3)CC2)c1C`, the “hERG current change (%, negative = inhibition) at 10uM” value is -8.54%. In the case of `O=c1nc2ccccc2c(NS(=O)(=O)c2ccccc2)n1-c1ccccc1` it was 2.7%; in that of `COc1ccc(OC(=O)C(C)N2C(=O)c3ccccc3C2=O)cc1` (stereo not drawn), 2.07%. As to `Cc1ccc(S(=O)(=O)N2c3ccccc3OCC2C(C)(C)C)cc1` (stereo not drawn), the “hERG current change (%, negative = inhibition) at 10uM” value amounted to 4.08%. The figure for `CC(C)(Oc1ccc(Cl)cc1)C(=O)N(Cc1ccccc1)c1ccccn1` is -7.15%; for `COc1ccc(-n2nc(C(=O)NCC(=O)NCCCN3CCOCC3)c3ccccc3c2=O)cc1` it is 3.4%.

As for `Cc1ccccc1C1c2[nH]c3ccccc3c2C[C@H]2C(=O)N(c3ccccc3C(=O)NCCCN3CCOCC3)C(=O)N12` (stereo partly drawn), the “hERG current change (%, negative = inhibition) at 10uM” value is recorded as -21.3%. The figure for `CCOC(=O)c1cnc2c(cnn2C)c1Cl` is 8.92%; for `O=C(NCCNc1ccc([N+](=O)[O-])cc1Cl)c1ccccc1F` it is -13.5%.

Take `CC(C)(C)C1CCc2onc(C(=O)NCc3ccc(F)cc3)c2C1` (stereo not drawn): the “hERG current change (%, negative = inhibition) at 10uM” value is on record as -15.8%. In the case of `CC(=O)Nc1cccc2c1OCCO2` it was 6.45%. As for `Cc1ccc(-c2cc(C(=O)NCCCn3ccnc3)c3ccccc3n2)s1`, the “hERG current change (%, negative = inhibition) at 10uM” value is -70.9%. Turning to `CCOc1ccc(N2C(=O)CC(SCc3nc4ccccc4[nH]3)C2=O)cc1` (stereo not drawn), the “hERG current change (%, negative = inhibition) at 10uM” value is on record as -31%. `OC(c1nc2ccc(F)cc2[nH]1)C(O)c1nc2ccc(F)cc2[nH]1` (stereo not drawn): the “hERG current change (%, negative = inhibition) at 10uM” value is given as 8.96%. Regarding `O=C(Nc1nnc(-c2ccc(F)cc2)s1)c1c(F)cccc1Cl`, the “hERG current change (%, negative = inhibition) at 10uM” value was 12.1%. Take `COc1ccc(/C=C2/C(=O)NC(=O)N(c3ccccc3)C2=O)cc1CN1C(=O)c2ccccc2C1=O`: the “hERG current change (%, negative = inhibition) at 10uM” value was determined as 8.65%. Take `CCCCCOP(=O)(c1ccccc1)c1ccccc1`: the “hERG current change (%, negative = inhibition) at 10uM” value was -29.8%.

For the compound `Cc1ccccc1S(=O)(=O)Cc1ccc(C(=O)O)o1`, the “hERG current change (%, negative = inhibition) at 10uM” value came to 10.8%.

`CCOC(=O)c1cccc(-[n+]2c(-c3ccccc3)cc(-c3ccccc3)cc2-c2ccccc2)c1.[O-][Cl+3]([O-])([O-])[O-]`: the “hERG current change (%, negative = inhibition) at 10uM” value is given as -73.5%.

With `NC(=O)c1ccsc1NC(=O)CS(=O)(=O)c1ccc(Cl)cc1`, the “hERG current change (%, negative = inhibition) at 10uM” value is reported as -75.7%.
